# According to patent US20220119490A1 (Genentech, published 2022):
# T1: CHL1 extracellular domain (human, UniProt O00533 25-1082)
# T1 construct: extracellular domain; Soluble query (streptavidin tetramer) in cell assays; recombinant protein (R&D) in SPR; also called neural cell adhesion molecule L1-like protein; close homolog of L1
# T1 sequence (looked up): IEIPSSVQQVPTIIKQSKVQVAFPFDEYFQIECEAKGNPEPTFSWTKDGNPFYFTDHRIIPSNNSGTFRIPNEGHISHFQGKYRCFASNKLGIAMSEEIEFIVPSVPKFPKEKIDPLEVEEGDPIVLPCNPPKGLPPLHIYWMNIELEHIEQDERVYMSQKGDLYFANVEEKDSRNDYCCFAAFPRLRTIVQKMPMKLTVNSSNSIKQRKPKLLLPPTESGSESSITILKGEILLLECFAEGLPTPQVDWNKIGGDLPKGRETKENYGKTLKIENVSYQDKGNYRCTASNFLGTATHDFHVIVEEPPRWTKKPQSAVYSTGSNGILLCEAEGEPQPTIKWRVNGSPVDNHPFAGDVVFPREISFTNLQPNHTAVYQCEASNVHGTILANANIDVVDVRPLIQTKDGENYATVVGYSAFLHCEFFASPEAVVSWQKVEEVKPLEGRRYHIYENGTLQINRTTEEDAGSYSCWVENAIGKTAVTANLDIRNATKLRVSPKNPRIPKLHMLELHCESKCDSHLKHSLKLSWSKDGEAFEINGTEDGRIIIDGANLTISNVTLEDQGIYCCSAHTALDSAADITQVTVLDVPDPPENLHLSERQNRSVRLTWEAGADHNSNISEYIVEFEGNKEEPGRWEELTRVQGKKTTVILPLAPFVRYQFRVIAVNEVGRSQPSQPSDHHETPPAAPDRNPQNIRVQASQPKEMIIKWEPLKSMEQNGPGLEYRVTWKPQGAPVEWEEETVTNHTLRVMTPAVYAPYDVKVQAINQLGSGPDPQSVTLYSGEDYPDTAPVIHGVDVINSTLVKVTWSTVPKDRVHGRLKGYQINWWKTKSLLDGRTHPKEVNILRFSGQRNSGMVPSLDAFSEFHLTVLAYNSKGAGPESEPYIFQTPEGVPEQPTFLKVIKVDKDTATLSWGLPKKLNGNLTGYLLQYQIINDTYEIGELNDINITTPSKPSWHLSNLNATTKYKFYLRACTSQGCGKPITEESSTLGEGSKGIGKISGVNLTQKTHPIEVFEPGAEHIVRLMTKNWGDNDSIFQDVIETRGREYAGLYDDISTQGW
# B1: BTLA expressed on cells (receptor)
# chain: not shown
# notes: whole, on cells; also called B- and T-lymphocyte attenuator
# Molecular target: T1, CHL1 extracellular domain
# Experiment: cell surface interaction assay: streptavidin-tetramerized biotinylated ECD on transfected cells, immunofluorescence
binder,measurement,value
B1,binding result,binds
